Drawing on the RNAGym collection of RNA variant scans (doi:10.7554/elife.90254), this text covers self-cleavage for 112 variants.

Sequences and labels used below:
B1: LINE1-mini (parent)
chain: GGCAGAGCUCAACACAGCGUGGCAAAGUGGCUGUGGCUAGACUGCC

The source gives no read counts; variants with many changes may rest on few reads.

In this data set the parent is B1. The data set can be described thus: self-cleavage, relative activity (ratio to wild type); higher = more cleavage; in vitro, sequencing; the parent is a self-cleaving ribozyme.
With GGCAGAGCUCAACACUGGGUGCCAAAGUGGCUGUGGCUAGACUGCG, the self-cleavage came to 0.05.
Next, GGCAGAGCUCAACACAACGUGGCAAGGUGGCGGUGGCUAGACUGCC: 0.01.
As to GGCAGAGCUCAACACUGCGUGGUAAAGUGGCUGUGGCUCGACUCCC, the self-cleavage came out at 0.
The value for GGCAGAGCUCAACACUGCGUGGCAAGGUUACUGUGGCAAGUCUGCC was 0.03; that for GGCAGAGCUCAACACAACGUGGCAAAGUGGCUGUGGCUAGAGUGGC was 0.03; that for GGCAGAGCUCAACACUGCGUGGCAAAGUGGCUAUGGCUAGACUCCC was 0.05.
The value for GGCAGAGCUCAACACAACGUCGCAAAGCGGCUGUGGCUAGACUGCC was 1.18; that for GGCAGAGCUCAACACAACGUGCCAAAGUGGCUAUGUCUAGACUGCC was 0.01; that for GGCAGAGCUCAACACUGCGUGGCAAAGUGACUGUGGCUAGAGUGCC was 0.14.
With GGCAGAGCUCAACACAACGUGUCAAAGUGGGUGUGGCUAGACUGCC, the self-cleavage turned out to be 0.04.
The value for GGCAGAGCUCAACACUGCUUGGCAAAGUGGCUGUGGCUAGACUGCA was 0.23; that for GGCAGAGCUCAACACUGCGUGGGAAAGUGGCUGUGGUUAGACUGCC was 0.06.
The value for GGCAGAGCUCAACACUGCGUGGCACAGUGGUUGUAGCUAGACUGCC was 0.01; that for GGCAGAGCUCAACACAAGGUGGCAAAGUAGCUGUGGCUAGACUGCC was 0.08.
As to GGCAGAGCUCAACACUGCGUGGCGAAGUUGCUGUGGCUAGACUGCC, the self-cleavage was 0.04.
Turning to GGCAGAGCUCAACACUGCUUGGCAAAGUCGCUGUGGCUAGACUGCC, the self-cleavage was found to be 0.19.
For the variant GGCAGAGCUCAACACUGCGUGGCAAAGUGGCUGUGGAUAAACUACC, the self-cleavage was 0.02.
GGCAGAGCUCAACACUAGGAGGCAAAGUGGCUGUGGCUAGAGUGCC: the self-cleavage stood at 0.05.
As to GGCAGAGCUCAACACAACGUGGUAAAGUGGCUGUGGCUAGACUGUC, the self-cleavage was determined as 0.3.
With GGCAGAGCUCAACACUGCGUGGCAGAGUGGCUGUGGCUUGACUGCC, the self-cleavage came out at 0.08.
The value for GGCAGAGCUCAACACUGCGUGGCAAAAUGGCUGUGGCUAGACCGCC was 0.06.
Next, GGCAGAGCUCAACACUGCGUGGCAAAGUGACUGUGGCUAGACUGCG: 0.05.
Next, GGCAGAGCUCAACACAACGUGGCAAAGUGGCUGUGGCUAGUAUGCC: 0.07.
Consider GGCAGAGCUCAACACUGCGUGGUAAAGUGGCAGUGGCUACACUGCC, for which the self-cleavage is 0.08.
The value for GGCAGAGCUCAACACAACGUGGCGAAGUGGCGAUGGCUAGACUGCC was 0.03.
As to GGCAGAGCUCAACACUGCGUGGCGAAGUGACUGUGGCUAGACUGCC, the self-cleavage was found to be 0.07.
The value for GGCAGAGCUCAACACUGCGUGGUGAAGUGGCUGUGGCUAGAUUGCC was 0.02; that for GGCAGAGCUCAACACAACGUGGCAAAGUGCCUGUGGCAAGACUGCC was 0.22.
On to GGCAGAGCUCAACACAACGUGGCAAAGUGCCUGUGGCUUGACUGCC, for which the self-cleavage came out at 1.07.
Next, GGCAGAGCUCAACACUUCGUGGCAAAGUGGCUGUGGCUAGACUGUC: 0.02; GGCAGAGCUCAACACAACGUGGUGAAGUUGCUGUGGCUAGACUGCC: 0.04.
The value for GGCAGAGCUCAACACUGCGUGGCAAAGUGGCUGUGGAUAGACUUCC was 0.15; that for GGCAGAGCUCAACACUGCGUGGCAGAGUGGCUGUAGCUAGACUGCC was 0.03; that for GGCAGAGCUCAACACAACGUGGGAAAUUGGCUGUGGCUAGACUGCC was 0.18.
Next, GGCAGAGCUCAACACUGCGUGGCAAAGUGGCUGUGGCUAAAUUCCC: 0.02; GGCAGAGCUCAACACUGCGUGGCACCAUGGCUGUGGCUAGACUGCC: 0.05; GGCAGAGCUCAACACAACGUGGCAAAGUCGCUUUGGCCAGACUGCC: 0.02.
As to GGCAGAGCUCAACACUGCGUGGCAACGUUGCUGUUGCUAGACUGCC, the self-cleavage turned out to be 0.02.
The value for GGCAGAGCUCAACACAACGUGGCAAAGUGUCUGUGGCUAUACUGCC was 0.58; that for GGCAGAGCUCAACACAACGUGGUAAAGUGGGUGUGUCUAGACUGCC was 0.03; that for GGCAGAGCUCAACACUGCCGGGCAAAGUGACUGUGGCUAGACUGCC was 0.02.
The value for GGCAGAGCUCAACACAACGUGGCAAAGUGGCUGUGGCUAGUCAGCC was 0.24; that for GGCAGAGCUCAACACAACGUGGCUAAGUGGCUGAGGCUAUACUCCC was 0.
Next, GGCAGAGCUCAACACUGCCUGGCAAAGUGGCUGUGGCUAGGCUGCC: 0.13; GGCAGAGCUCAACACUGCGUGGCUAAGUGGCUGUGGAUAGACUGCC: 0.1.
With GGCAGAGCUCAACACAACGUGGUAAAGUGGGUGUGGCUAGACUGCC, the self-cleavage amounted to 0.08.
GGCAGAGCUCAACACAACGUGGCAAAGUGGUUGUGGUUAGAGUGCG: the self-cleavage came out at 0.01.
The value for GGCAGAGCUCAACACAAUGUGGCAAAGUGGCAGUGGCUAUACUGCC was 0.13; that for GGCAGAGCUCAACACUGAGUGGCACAGUGGCUGGGGCUAGACUGCC was 0.01.
On to GGCAGAGCUCAACACAACGUGGCAAAGUUGCCGUGGCUAGACUGCC, for which the self-cleavage is 0.27.
On to GGCAGAGCUCAACACUGCUAGGCAAAGUCGCUGUGGCUACACUGCC, for which the self-cleavage was 0.2.
As for GGCAGAGCUCAACACUGCGUGAAAACGUGGCUGUGGCUAGACUGCC, the self-cleavage turned out to be 0.03.
Turning to GGCAGAGCUCAACACAACUUGACAAAGUGGCUGUGGCUAGACUGCC, the self-cleavage worked out at 1.
The value for GGCAGAGCUCAACACUUCGUGGCAAAGUGGCUGCGGCUAGACUGCC was 0.07.
The value for GGCAGAGCUCAACACUGCGUGGCAAAGAUGCUGUGUCUAGACUGCC was 0.09.
Next, GGCAGAGCUCAACACAACGUGGCAACGUAGCUGUGCCUAGACUGCC: 0.05.
As to GGCAGAGCUCAACACAACGUGGCAAAGUGGCUGUGGCUAGUCUAGC, the self-cleavage worked out at 0.09.
The value for GGCAGAGCUCAACACGGCGUGGCAAAGUGGCUGGGUCUAGACUGCC was 0.01.
The value for GGCAGAGCUCAACACAACGUAGGAAAGUGGCUGUGGCAAGACUGCC was 0.72.
Next, GGCAGAGCUCAACACGGCGUGGCAAAGUGGCUGUGGCGAGCCUGCC: 0; GGCAGAGCUCAACACAACGUGUUUAAGUGGCUGUGGCUAGACCGCC: 0.04.
In the case of GGCAGAGCUCAACACAACGUGACAAAGUAGCUGUGGCUAGACUGCC, the self-cleavage amounted to 1.35.
Turning to GGCAGAGCUCAACACUGCGUUGCAGAGUGGCUGUGGCUAGACUGCC, the self-cleavage was 0.11.
GGCAGAGCUCAACACAAUGUGGCAAAUUGGCUGUGGCUAGACUGCC: the self-cleavage came out at 0.03.
Turning to GGCAGAGCUCAACACUGCGUGGCAAAGUGGCUGUGGUUAAACUGCC, the self-cleavage was 0.13.
Take GGCAGAGCUCAACACAACGUGGCCAAGUGGCUGUGGAUGGACUGCC: the self-cleavage was determined as 0.05.
On to GGCAGAGCUCAACACUUCGUGGCAAAGUGGGUGUGGCUAGACUGCC, for which the self-cleavage amounted to 0.05.
On to GGCAGAGCUCAACACUGCGUGGCAAAGUGGCUGUGUCUAGACUGGC, for which the self-cleavage was determined as 0.05.
Next, GGCAGAGCUCAACACUGUGUGGCAAAGUGGCUGUGGCUAGACUUCA: 0.09; GGCAGAGCUCAACACAACGUGGCAAUGUGGCUGUGGCUAGACUGGC: 0.04.
The value for GGCAGAGCUCAACACAACGUUUCAAAGUGGCUGUGCCUUGACUGCC was 0.04.
Next, GGCAGAGCUCAACACAACGUGGCAAAGUGACUGUGGCUAGACUGCU: 0.39.
Take GGCAGAGCUCAACACAACGUGCCAAAGUGGCUGUGGCAAGACGGCC: the self-cleavage was 0.05.
On to GGCAGAGCUCAACACAACGUUGCAAAGUGGCUGUGGCUACUUCGCC, for which the self-cleavage is 0.03.
Regarding GGCAGAGCUCAACACUGCGUGGCAAAGUGUCUGUGCCUAGACUGCC, the self-cleavage is 0.01.
Take GGCAGAGCUCAACACAACGUGGCAAAGUGCCUGUGGCUAGAGUGCC: the self-cleavage worked out at 0.02.
Next, GGCAGAGCUCAACACUGCGUGGCAAAGUGGCUGUGUCUAGAUUGCC: 0.12.
For the variant GGCAGAGCUCAACACUGCGUGCCAAAGUGGCUGUGGCUAGACUGCG, the self-cleavage was 0.07.
Next, GGCAGAGCUCAACACAAAGUGGCAAAGUGGGCGUGGCUAGACUGCC: 0.04.
For the variant GGCAGAGCUCAACACAACGUGUCAAAGUGGCUGUGGCUUGACUGCC, the self-cleavage amounted to 0.29.
Next, GGCAGAGCUCAACACUGAGUGGCAAAGUGUCUGUGGCUAGACUGCC: 0.03; GGCAGAGCUCAACACUGCGUGGCAAAUUGGCUGUGGCUAGACUACC: 0.11; GGCAGAGCUCAACACAACGUGGCAAAAUGGCUGUGGCUUGACUGCC: 0.02.
For the variant GGCAGAGCUCAACACAACGUGCCAUAGUGGCUGUGGCUAGACUGCC, the self-cleavage was found to be 0.7.
Consider GGCAGAGCUCAACACAACGUUGCAAACUGGCUCUGGCUAGGCUGCC, for which the self-cleavage amounted to 0.01.
As to GGCAGAGCUCAACACAAAGUUGCAAAGUGGCUUUGGCUAGACUGCC, the self-cleavage came out at 0.
Next, GGCAGAGCUCAACACAACAUGGCAAAGUGGCUCUGGCUAGACUGCC: 0.03.
The value for GGCAGAGCUCAACACUGCGUGGCAAAGUGGCUGUAGCUCGACCGCC was 0; that for GGCAGAGCUCAACACAACUUGGCAAAAUGGCUGUGGCUAGACUGCA was 1.47; that for GGCAGAGCUCAACACAACGUGGCAAAGUGGGUGUGGCUAUACUGCC was 0.01.
Next, GGCAGAGCUCAACACAACGUGGCAAAAUGGCUGUGGGUAGACUGCC: 0.04; GGCAGAGCUCAACACUUCGUGGCAAAGUGGCUCGGGCUAGACUGCC: 0.02; GGCAGAGCUCAACACUACGUGGCAAGGUGGCUGUUGCUAGACUGCC: 0.03.
Take GGCAGAGCUCAACACUGCGUGGAAAAGUGGCUGUGGCUAGACUGCU: the self-cleavage came out at 0.28.
Regarding GGCAGAGCUCAACACAACGUGGCAAAGUGCCUGUGACUAGACUGCC, the self-cleavage was found to be 0.03.
The value for GGCAGAGCUCAACACUUCGUGGCAAAGCGGCUGUGGCUACACUGCC was 0.02.
On to GGCAGAGCUCAACACAACUUGGCAAAGUGGGUGUGGCUACACUGCC, for which the self-cleavage turned out to be 0.02.
As to GGCAGAGCUCAACACAACGUGGAAAAGUGGCUGUGGAUAGACUGCU, the self-cleavage came out at 0.07.
The value for GGCAGAGCUCAACACAAUGUGGCAAAGAGGCCUGGGAUCGACUGCC was 0.
The value for GGCAGAGCUCAACACAACGUGGCAAAGUGGUUGUGGCUAGACUGCA was 0.5.
Next, GGCAGAGCUCAACACUGUGUGCCAAAGUGGCUGUGGCUAGACUGCC: 0.03.
As to GGCAGAGCUCAACACUGCGUGGCAAAGUGGUUGUGUCUAGACUACC, the self-cleavage amounted to 0.
For the variant GGCAGAGCUCAACACUGCGUGGGAAUGUGGCGGUGGUUAGAAUGCC, the self-cleavage was 0.14.
The value for GGCAGAGCUCAACACAACAUGGCAACGUGGCUGUGGCUAAACUGCC was 0.11.
The value for GGCAGAGCUCAACACUGCGUGGCGAAGUGGCUGUGGCUAGAUUGCC was 0.13; that for GGCAGAGCUCAACACUGCCUGGCAAACUGGCUGUGGCUAUACUUCC was 0.03; that for GGCAGAGCUCAACACUACCUGGCAAAGUGGCUGUGGCUAGACUGCC was 0.27.
For GGCAGAGCUCAACACUGCGUAGCAAAUUGGCUGUGGCUAGACUGAC, the self-cleavage was determined as 0.3.
Take GGCAGAGCUCAACACUGCGUGGCAAAGUGGCUGUGUCUGGACUGCC: the self-cleavage was 0.06.
Take GGCAGAGCUCAACACAACGUGGCUAAGUGGCUGAGGCUAGACUGCC: the self-cleavage was found to be 0.03.
Take GGCAGAGCUCAACACUGCGUGGCAAAGAGGCUGUGGCUAGACUGCA: the self-cleavage turned out to be 1.77.
With GGCAGAGCUCAACACUGCGUGGCAAAGUGGCUGUGGAUAGACUGGC, the self-cleavage was determined as 0.04.
